These results are taken from ChEMBL document CHEMBL4888484, “Replenishing the malaria drug discovery pipeline: Screening and hit evaluation of the MMV Hit Generation Library 1 (HGL1) against asexual blood stage Plasmodium falciparum ,using a nano luciferase reporter read-out” (2022).

Screen size: about 150,000 compounds; about 540 (0.36%) showed an effect of 50% or more. This is one part of the list.

The test system of this assay is Plasmodium falciparum. The experiment in a line: Primary screen in NF54 nanoGlo assay, in single point, at 2uM, 72h; a lower Z score goes with more inhibition. The format is functional, Erythrocyte. The note with it: timepoint 72 hour.
Turning to `c1nc(C2CCN(Cc3ccc4c(c3)OCCO4)CC2)no1`, the % Inhibition (usually the drop in the measured response relative to a control, in per cent) was -16% and the Z score is given as 1.52.

On to `O=C1CCCC[C@@H](C(=O)NCCN2CCOCC2)N1`, for which the “% Inhibition” value was found to be 5% and the Z score was -0.89.

Consider `NC(=O)C1CCCCC1Nc1ncc(Br)cn1` (stereo not drawn), for which the “% Inhibition” value was -12% and the Z score is given as 1.58.

Consider `CC1(C)C[C@@H](CNC(=O)c2cncnc2C2CC2)CCO1`, for which the “% Inhibition” value was -2% and the Z score is listed as 0.28.

As for `CCc1nc2c(c(NC[C@H]3CCOC3)n1)CCN(Cc1ccoc1)CC2`, the “% Inhibition” value was -10% and the Z score is reported as 1.23.

Regarding `Cc1c(Br)ccc(=O)n1CCOC[C@H]1CCCO1`, the “% Inhibition” value is reported as -1% and the Z score was determined as 0.24.

Turning to `COc1ccc(-c2n[nH]c(=O)[nH]2)c(-n2cccn2)c1`, the “% Inhibition” value is recorded as -17% and the Z score came to 1.86.

For the compound `Cc1cccnc1-c1noc([C@]2(C)CCCO2)n1`, the “% Inhibition” value worked out at 2% and the Z score was -0.38.

Turning to `COCC1(c2nc(-c3nccc4ccccc34)no2)CCC1`, the “% Inhibition” value was found to be 1% and the Z score was -0.09.

Turning to `COc1ccc(NC(=O)c2ccc(COc3ccc4c(c3)CCC4)cc2)c(OC)c1`, the “% Inhibition” value was -27% and the Z score is given as 3.15.

On to `Brc1ccc2[nH]c(CNc3ncccn3)cc2c1`, for which the “% Inhibition” value is given as 0% and the Z score was 0.04.

`CN(Cc1ccc(Br)o1)S(C)(=O)=O`: the “% Inhibition” value is given as -13% and the Z score is on record as 1.81.

As for `Cn1c(CNC(=O)C2CCC2)nc2c1CN(C(=O)Cc1cccc(F)c1)CC2`, the “% Inhibition” value was -8% and the Z score was 0.88.

`COc1cc(CN(C)Cc2nc(C)cs2)ccc1OC[C@@H](O)CN1CCC(O)CC1`: the “% Inhibition” value is 3% and the Z score is -0.4.

As to `Fc1ccccc1-c1cc(NCc2nnn[nH]2)n2nccc2n1`, the “% Inhibition” value is on record as -3% and the Z score is on record as 0.52.

As to `CCOC(=O)NC1CCN(Cc2ncc(C)o2)CC1`, the “% Inhibition” value is on record as -8% and the Z score is recorded as 1.09.

For `CCN(C(=O)c1cccc(OC)c1)[C@H](c1ccc(C)cc1)c1c[nH]c2ccccc12`, the “% Inhibition” value was 11% and the Z score was -1.45.

Take `COC(=O)Nc1nc(-c2ccccc2)c(-c2nc3ccccc3c(=O)n2-c2ccc(OC)cc2)s1`: the “% Inhibition” value is reported as 51% and the Z score is recorded as -6.56.

In the case of `CCn1ccnc1CN(C)c1nc(N(C)C)nc(C)c1C`, the “% Inhibition” value was -6% and the Z score is listed as 1.14.

Regarding `CCc1cnccc1-c1noc(C2CCOCC2)n1`, the “% Inhibition” value was -5% and the Z score is 0.55.

Consider `O=c1[nH]cccc1-c1csc(C2CC3(CC3)C2)n1`, for which the “% Inhibition” value is recorded as -13% and the Z score was determined as 2.67.

Consider `CCC(C)[C@H](NC(=O)N1CCCC1)C(=O)N1CCN(CC(C)O)C(C)C1` (stereo partly drawn), for which the “% Inhibition” value was -8% and the Z score stood at 0.87.

As for `FC(F)(F)C(c1nc(Nc2nc(N3CCOCC3)nc(N3CCOCC3)n2)nc(C(C(F)(F)F)(C(F)(F)F)C(F)(F)F)n1)(C(F)(F)F)C(F)(F)F`, the “% Inhibition” value is given as 32% and the Z score is given as -4.63.

On to `Cc1nc2[nH]nc(N)c2c2c1COC(C)(C)C2`, for which the “% Inhibition” value is recorded as -16% and the Z score came to 2.01.

As to `O=C(c1ccoc1)N1CCCC[C@H]1c1nc(-c2ccncc2)no1`, the “% Inhibition” value is reported as -14% and the Z score stood at 1.48.

As for `Cc1ccc2c(c1)Oc1ccccc1C(N1CCN(C(=O)OCc3ccccc3)CC1)=N2`, the “% Inhibition” value is on record as -6% and the Z score is reported as 0.82.

As to `CCC=C(C)C(=O)NCc1cccc(OCC)c1`, the “% Inhibition” value is listed as -5% and the Z score was 0.48.

`COc1ccccc1CNc1nc2[nH]c3c(c(=O)n2n1)CCCC3`: the “% Inhibition” value was 8% and the Z score is reported as -0.7.

For `COc1cc(C(=O)NCC2CCN(CC(F)F)CC2)ncn1`, the “% Inhibition” value is given as -5% and the Z score is 0.84.

Regarding `Cc1cnc([C@H](C)Nc2ncncc2Br)s1`, the “% Inhibition” value was -5% and the Z score is 0.62.

Take `Cc1ccc(CNC(=O)[C@]2(C)Cn3nc(-c4ccco4)cc3C(=O)N2Cc2ccccc2Cl)cc1`: the “% Inhibition” value is given as -15% and the Z score was 2.39.

For `CCC(O)CNC(C)c1ccc(F)c(Cl)c1` (stereo not drawn), the “% Inhibition” value is reported as -11% and the Z score came to 1.34.

Regarding `CN(Cc1ccccc1)C(=O)c1cc(NC(=O)C2CCC2)ccc1N1CCCN(C(=O)C2CCCC2)CC1`, the “% Inhibition” value is on record as 3% and the Z score was -0.4.

On to `C[C@@H](C(=O)N1CCC(n2c(=O)[nH]c3ccc(F)cc3c2=O)CC1)n1cccn1`, for which the “% Inhibition” value came to 4% and the Z score is given as -0.68.

In the case of `COc1ccc(OC(C)CNC(=O)N2CCCC(C)(O)C2)cc1` (stereo not drawn), the “% Inhibition” value was 18% and the Z score was -2.19.

With `Cc1ncsc1C(=O)N1CCC([C@H](C)N2CCN(C)CC2)CC1`, the “% Inhibition” value is given as -4% and the Z score is listed as 0.54.

As for `O=C(NCCS(=O)(=O)C1CC1)c1cnc(OCC2CC2)cn1`, the “% Inhibition” value is given as 27% and the Z score is recorded as -3.05.

In the case of `Cc1sc(NC(=O)Cc2cccs2)c(C#N)c1-c1ccc(F)cc1`, the “% Inhibition” value is reported as -12% and the Z score is 1.39.

For `COc1cc(OC)c(NC(=O)N2CCN(c3cc(C)nc(N4CCOCC4)n3)CC2)cc1Cl`, the “% Inhibition” value is reported as -12% and the Z score is recorded as 1.93.

For `Cc1nnc2c(NC(=O)Cc3c(F)cccc3Cl)cccn12`, the “% Inhibition” value is listed as -14% and the Z score was 2.11.

Consider `O=C(Cc1cccc2ccccc12)Nc1ccccn1`, for which the “% Inhibition” value was -8% and the Z score turned out to be 1.1.

Take `COc1ccc(OC)c(Cc2nnc(CCC(=O)NC3CC(C)(C)CC(C)(C)C3)o2)c1`: the “% Inhibition” value was -14% and the Z score is 1.27.

Consider `CCN(CC)C(=O)Nc1ccc(C(F)(F)F)nn1`, for which the “% Inhibition” value is recorded as -4% and the Z score amounted to 0.6.

Turning to `Cc1nc(CN(C(=O)c2cc(C3CC3)nc3ccccc23)C(C)C)no1`, the “% Inhibition” value is -10% and the Z score is given as 1.34.

Turning to `Cc1nc2cc(NC(=O)c3cc[n+]([O-])cc3)ccc2o1`, the “% Inhibition” value came out at 1% and the Z score is -0.13.

With `CC(C)CN(CC(O)c1ccccc1)S(=O)(=O)c1cnn(C2CCOC2)c1` (stereo not drawn), the “% Inhibition” value is -10% and the Z score is 1.91.

For `CCn1cc(CN(CCO)C(=O)c2cc(C)ccc2C2CC2)cn1`, the “% Inhibition” value is reported as -18% and the Z score is recorded as 2.18.

As for `COc1cc(C(=O)NCCC2=CC[C@H]3C[C@@H]2C3(C)C)ccc1OC1CCN(C)CC1`, the “% Inhibition” value is given as 1% and the Z score is on record as -0.21.

For `CC(C)[C@H](NS(=O)(=O)CC1CCOCC1)c1ccccc1N`, the “% Inhibition” value was -3% and the Z score is 0.43.

As for `COc1cccc2c(C)nc(NC3=NCN(Cc4ccc5c(c4)OCO5)CN3)nc12`, the “% Inhibition” value is -12% and the Z score is listed as 1.24.

With `Cc1cc2ncc3c(n2n1)CCN(S(=O)(=O)c1cccc(Cl)c1C)C3`, the “% Inhibition” value is recorded as -5% and the Z score came to 0.7.

On to `Cc1ccc2oc(CN3CCN(C(=O)Nc4ccc(Br)cc4)CC3)nc2c1`, for which the “% Inhibition” value is listed as -21% and the Z score stood at 1.88.

Regarding `Cc1csc(C(C)CNC(=O)NC(C)C2CCOC2)n1` (stereo not drawn), the “% Inhibition” value is 3% and the Z score is recorded as -0.4.

Regarding `Cc1cc(=O)c(OCC(=O)Nc2ncc[nH]2)cn1C`, the “% Inhibition” value is recorded as 1% and the Z score was -0.06.
